Laboratory results published in PubChem BioAssay AID1468 (National Center for Advancing Translational Sciences (NCATS), 2008).
Hit rate of the full screen: of about 280,000 compounds, about 1,100 (0.39%) were called active. Inconclusive means that the source gave no clear call. Such entries were picked first, then a sample of the others. Calls follow the shape of the dose curve; as a rule, active = well fitted inhibition curve with a large enough effect; inconclusive = small, poorly fitted or top-dose-only effect, or effect the other way; inactive = flat fitted curve, though single readings scatter. Potencies of inconclusive entries are left out as doubtful fits.

What follows are compounds tested against Microtubule-associated protein tau (Homo sapiens) (UniProt P10636) (assay: qHTS for Inhibitors of Tau Fibril Formation, Fluorescence Polarization). Settings: K18 P301L tau heparin fibrillization, Alexa594 FP, 6 h; series mostly up to 57.7 µM.
Outline: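 FP of Alexa 594-tau after heparin (20 uM) induction. Substrate: human K18 P301L, 15 uM unlabeled, 0.24 uM labeled. Buffer 100 mM sodium acetate pH 7. 6 hr, 37 C.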
Also: nearly all actives have a fitted effect of over 55% in size.
Potency is read from the fitted curve at half-maximal effect; tags tell the direction and shape of the fitted curve.

Chain of UniProt P10636 (P10636 whole entry, looked up): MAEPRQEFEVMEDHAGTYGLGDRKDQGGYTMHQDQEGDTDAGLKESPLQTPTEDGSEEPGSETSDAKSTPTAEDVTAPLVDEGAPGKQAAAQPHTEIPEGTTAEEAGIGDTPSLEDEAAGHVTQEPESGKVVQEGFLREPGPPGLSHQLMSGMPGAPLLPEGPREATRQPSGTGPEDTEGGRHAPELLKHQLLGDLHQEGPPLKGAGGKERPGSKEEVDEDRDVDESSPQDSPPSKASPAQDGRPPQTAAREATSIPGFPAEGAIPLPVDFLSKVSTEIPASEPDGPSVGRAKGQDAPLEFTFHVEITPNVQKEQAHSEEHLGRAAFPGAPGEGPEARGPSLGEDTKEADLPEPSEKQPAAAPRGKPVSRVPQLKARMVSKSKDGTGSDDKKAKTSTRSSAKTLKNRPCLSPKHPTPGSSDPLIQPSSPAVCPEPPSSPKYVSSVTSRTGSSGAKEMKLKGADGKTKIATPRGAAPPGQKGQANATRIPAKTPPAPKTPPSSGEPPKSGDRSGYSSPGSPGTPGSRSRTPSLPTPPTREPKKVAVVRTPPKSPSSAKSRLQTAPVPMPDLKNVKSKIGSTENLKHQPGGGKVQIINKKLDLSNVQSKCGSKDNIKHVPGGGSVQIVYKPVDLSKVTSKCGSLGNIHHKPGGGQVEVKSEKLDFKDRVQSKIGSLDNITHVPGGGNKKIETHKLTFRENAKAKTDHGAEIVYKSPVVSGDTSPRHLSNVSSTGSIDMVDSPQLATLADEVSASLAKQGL

| SMILES | Potency |
| --- | --- |
| CNc1oc(-c2ccc(OCc3ccccc3)cc2)nc1C#N | inconclusive [inhibitor, full curve, poor fit] |
| O=C(CSc1nc2ccccc2o1)c1cc2ccccc2oc1=O | inconclusive [inhibitor, single point] |
| O=C1CCN(C(=O)Nc2cccc(Cl)c2)N1 | inconclusive [inhibitor, single point] |
| COc1ccccc1NCC(O)Cn1c2ccccc2c2ccccc21 (stereo unspecified) | inconclusive [activator, partial curve, poor fit] |
| O=C(c1ccccc1)n1nc(-c2ccccc2)nc1NCc1ccco1 | inconclusive [inhibitor, full curve, poor fit] |
| CC1=C(C#N)c2nc(N)c(C#N)c(C)c2/C1=C\c1ccc(-c2ccccc2C(=O)O)o1 | inconclusive [inhibitor, single point] |
| CCOc1ccc(NC(=O)CSc2oc(-c3ccco3)nc2S(=O)(=O)c2ccc(Cl)cc2)cc1 | inconclusive [inhibitor, full curve] |
| S=C(Nc1ccc(Br)cc1Cl)NC1CCN(Cc2ccccc2)CC1 | inconclusive [inhibitor, partial curve] |
| Cn1cnnc1SCC(=O)Nc1ccc(N2CCOCC2)cc1 | inconclusive [inhibitor, single point] |
| COc1ccccc1Nc1nc(-c2sc(NC(=O)c3ccc([N+](=O)[O-])cc3)nc2C)cs1 | inconclusive [activator, full curve, poor fit] |
| CCN1CCN(C(c2cccc(OC)c2)c2c(O)cc(C)n(Cc3ccco3)c2=O)CC1 (stereo unspecified) | inconclusive [inhibitor, single point] |
| COC(=O)[C@@H]1C[C@@H]2CC[C@@H](O)C[C@@H]2N1Cc1ccc(C(F)(F)F)cc1 | inconclusive [activator, single point] |
| COc1ccc(-n2cc(-c3ccccc3)nc2SC)cc1 | inactive |
| COC(=O)C(NNc1ccccc1)(NC(=O)c1ccc(F)cc1)C(F)(F)F (stereo unspecified) | inconclusive [inhibitor, partial curve] |
| COc1ccccc1CNc1ncnc2onc(-c3ccc(Cl)cc3)c12 | inactive |
| COc1cc(/C=C2\COC/C(=C\c3cc(OC)c(OC)c(OC)c3)C2=O)cc(OC)c1OC | inconclusive [inhibitor, full curve] |
| Cc1cc(C(=O)Nc2ccc(Cl)cc2)c2c(C)nn(-c3ccccc3)c2n1 | inconclusive [inhibitor, single point] |
| COc1cc2[nH]c(=S)n(Cc3ccco3)c(=O)c2cc1OC | inconclusive [inhibitor, single point] |
| CCCS(=O)(=O)NCCc1sc2nc(-c3ccc(Cl)cc3)nn2c1C | inconclusive [inhibitor, full curve, poor fit] |
| CN1CCN(C(=S)C(=O)Nc2ccc(Br)cc2)CC1 | inconclusive [inhibitor, partial curve] |
| O=C(NCCn1cc(SCc2ccc(C(F)(F)F)cc2)c2ccccc21)c1cccs1 | inactive |
| CC(=O)[C@@H]1[C@@H](C(=O)c2ccc(C)cc2)[C@]2(C(=O)Nc3ccccc32)[C@H]2C=Cc3cc(F)ccc3N12 | inconclusive [inhibitor, single point] |

| SMILES | Potency |
| --- | --- |
| Cc1cc(C(=O)Cn2cc(C(F)(F)F)ccc2=O)c(C)n1-c1ccccc1 | inconclusive [inhibitor, full curve, poor fit] |
| COc1cc(NC(=O)c2cc(-c3ccco3)on2)c(OC)cc1Cl | inconclusive [inhibitor, single point] |
| CCCCCOc1ccc(CSCCNC(=S)Nc2ccccc2)cc1 | active: 12.6 µM |
| O=C(CN1C(=O)COc2ccc(S(=O)(=O)NC3CCCC3)cc21)Nc1ccc(F)c(Cl)c1 | inconclusive [inhibitor, partial curve] |
| O=C(O)c1cc(-c2c[nH]c3ccccc23)nc2cc3ccccc3cc12 | inactive |
| O=C(/C(C=Nc1cccc(C(F)(F)F)c1)=C(/O)c1ccco1)C(F)(F)F | inactive |
| O=c1[nH]c(SCc2nc3c(cnn3-c3ccccc3)c(=O)[nH]2)nc2ccccc12 | inconclusive [inhibitor, single point] |
| CCOc1ccc(NC(=O)C(C)SC(N)=O)cc1 (stereo unspecified) | inconclusive [inhibitor, single point] |
| COc1ccc(/C=N/NC(=O)Cn2c(Cc3ccc(OC)c(OC)c3)nc3ccccc32)cc1OC | inactive |
| Cc1ccc(NN=Nc2nc3c([nH]2)c(=O)n(C)c(=O)n3C)cc1 | inconclusive [inhibitor, partial curve] |
| CCOC(=O)c1cn(Cc2cccc(Cl)c2)nn1 | inactive |
| COc1ccc(C(=O)NC(=S)NCCc2ccccc2)cc1 | inactive |
| Cc1ccc(CSc2nc3ccncc3n2CC(=O)Nc2cc(C)cc(C)c2)cc1 | inconclusive [inhibitor, partial curve] |
| COc1ccc(OC)c(NC(=O)C(Cc2ccccc2)NS(=O)(=O)c2ccc3c(c2)CCC(=O)N3)c1 (stereo unspecified) | inconclusive [activator, single point] |
| COc1ccc2c(c1)c(CC(=O)Nc1cccc(S(N)(=O)=O)c1)c(C)n2C(=O)c1ccc(Cl)cc1 | inconclusive [inhibitor, partial curve] |
| O=C(Nc1ccc(Br)cc1)Nc1nc2c(s1)CCCCCC2 | inconclusive [inhibitor, single point] |
| Cc1cc(C)c(S(=O)(=O)ON2C(=O)c3ccccc3C2=O)cc1C | inconclusive [inhibitor, partial curve, poor fit] |
| O=C(NCc1ccccc1Cl)C(=O)c1c[nH]c2ccccc12 | inconclusive [inhibitor, single point] |
| CCN(CC)S(=O)(=O)c1ccc(OC)c(NC(=O)/C=C/c2ccco2)c1 | inconclusive [inhibitor, single point] |
| COc1cc(OC)c(NC(=O)c2nn(C)c3c2COc2ccccc2-3)cc1Cl | inactive |
| O=C(COC(=O)c1cn(-c2ccccc2)nc1-c1ccccc1)c1ccc([N+](=O)[O-])cc1 | inconclusive [activator, single point] |
| CC(C)(C)C(=O)OCc1cn(-c2ccc(Cl)cc2)nn1 | inactive |

| SMILES | Potency |
| --- | --- |
| C#CCOc1c(Br)cc(C2C(C(=O)OC)=C(C)NC3=C2C(=O)c2ccccc23)cc1OCC (stereo unspecified) | inconclusive [inhibitor, single point] |
| CC(C)CC(=O)NCCCCc1ccccc1 | inactive |
| CCOc1ccc(OC(=O)c2sc3ncn(Cc4cccc(F)c4)c(=O)c3c2C)cc1 | inconclusive [inhibitor, single point] |
| O=C(Nc1ccccc1)c1cc2c(-c3ccccc3)nn(-c3ccccc3)c2s1 | active: 20 µM |
| Cc1ccc(-c2nnc(Nc3cccc(Br)c3)c3ccccc23)cc1S(=O)(=O)N1CCN(C)CC1 | inconclusive [inhibitor, partial curve] |
| COC(=O)C1=C(NC(C)=O)CCS1 | inactive |
| COC(=O)CCC(=O)OC1(C)C(=O)C2=CN(CCN3CCOCC3)C(c3ccc(OC)cc3)=CC2=C(Br)C1=O (stereo unspecified) | inconclusive [inhibitor, partial curve, poor fit] |
| C=CCn1c(C(CC(C)C)CC(C)O)n[nH]c1=S (stereo unspecified) | inactive |
| Cc1ccccc1NC(=O)Cn1c(=O)n(Cc2ccco2)c(=O)c2ccc(C(=O)NC3CCCC3)cc21 | inconclusive [inhibitor, partial curve, poor fit] |
| Cc1cc(-c2ccccc2)nc2cc(C(=O)Nc3ccc(Cl)c(Cl)c3)nn12 | inactive |
| Cc1cccc(C)c1OCc1n[nH]c(=S)n1N | inactive |
| CCn1c(=O)c(C(=O)CN2CCCc3ccccc32)c(N)n(Cc2ccccc2)c1=O | inconclusive [activator, partial curve] |
| COc1cc2c(cc1NS(=O)(=O)N1CCCCC1)oc1ccccc12 | inconclusive [inhibitor, partial curve, poor fit] |
| Cc1ccc(NC(=S)N/N=C/c2c(Cl)cccc2Cl)c(C)c1 | inactive |
| OCCNc1nc(Nc2ccc(Br)cc2)nc2ccccc12 | inconclusive [inhibitor, partial curve, poor fit] |
| Cc1cccc(C(=O)NC(=S)NNC(=O)COc2ccc(Cl)cc2)c1 | inactive |
| CCOc1ccc(NCc2cccn2-c2nnc(N3CCC(C(=O)NCCc4ccc(OCC)c(OCC)c4)CC3)s2)cc1 | inconclusive [activator, full curve, poor fit] |
| CC(=O)C1=C(c2cccc([N+](=O)[O-])c2)N(C(C)=O)n2c(C)nnc2S1 | inconclusive [inhibitor, full curve] |
| CCCC(=O)Nc1ccc2nc(SCCOc3ccccc3)sc2c1 | inconclusive [inhibitor, full curve, poor fit] |
| CCCC(=O)N1c2ccccc2C(=C2SC(C(=O)OC)=C(C(=O)OC)S2)C(=S)C1(C)C | inconclusive [inhibitor, full curve] |
| COc1ccccc1-c1noc(CCC(=O)Nc2cccc(C(F)(F)F)c2)n1 | inconclusive [inhibitor, single point] |
| COC(=O)c1[nH]c2ccc(C)cc2c1NC(=O)CN1CCN(c2ccc(F)cc2)CC1 | inconclusive [activator, partial curve, poor fit] |
